ChEMBL document CHEMBL4888484, “Replenishing the malaria drug discovery pipeline: Screening and hit evaluation of the MMV Hit Generation Library 1 (HGL1) against asexual blood stage Plasmodium falciparum ,using a nano luciferase reporter read-out” (2022)
In all, about 150,000 compounds went through this assay and about 540 (0.36%) showed an effect of 50% or more. Some of the results follow.

These compounds were tested on Plasmodium falciparum (assay: Primary screen in NF54 nanoGlo assay, in single point, at 2uM, 72h; a lower Z score goes with more inhibition). Conditions: timepoint 72 hour.
Assay type: functional, Erythrocyte

Structure (SMILES)	% Inhibition	Z score
FC(F)(F)[C@H]1C2CCC(CC2)[C@@H]1c1nc(-c2ccncc2)no1	3%	-0.38
CC(NC(=O)OC(C)(C)C)c1noc(CC2C=CCC2)n1 (stereo unspecified)	12%	-1.65
COc1ccc(-c2n[nH]c3c2[C@@H](c2cccc(OC)c2)CC(=O)O3)cc1	8%	-1.05
O[C@]1(c2ccccc2)CCN(Cc2ccncc2)C[C@H]1N1CCCC1	14%	-1.79
C1CCC2C(C1)CCCN2Cc1nc(C2CC2)no1 (stereo unspecified)	-11%	1.06
CC[C@H](C)NC(=O)NCCn1nnc2cc(S(=O)(=O)NC(C)C)ccc21	-11%	1.15
Fc1ccc([C@@H]2CN(Cc3noc(C4CC4)n3)CCO2)c(Cl)c1	-7%	0.91
Cn1nc2n(c1=O)C[C@@H](c1ncnn1CCc1ccccc1)CC2	-22%	2.53
Cc1nc(-c2ccc(NC(=O)c3ccc(O)nc3)cc2)co1	0%	-0.03
CC(C(=O)Nc1ccc(Br)cc1Br)N1CCCC(CC(=O)O)C1 (stereo unspecified)	-9%	1.09
C[C@@H](CS(C)(=O)=O)NC(=O)N(C)Cc1ccc(Cl)c(F)c1	-11%	1.45
FC(F)(F)c1ccc(C2(CNC3CCOCC3)CC2)cc1	-12%	1.61
COc1ccc(O[C@@H]2CNCCOC2)cc1	-7%	0.9
Cc1nc(CN(C)CCC[C@H]2CCCO2)cs1	4%	-0.33
Cc1cc(C)c(OC(=O)Cn2c(C)csc2=O)c(C)c1	-11%	1.53
Cc1cc2ncn(-c3ccc(-n4cnnc4)nc3)c2cc1C	-13%	1.77
Cc1cc(C)nc(CCNCc2c[nH]nc2-c2ccc(F)cc2F)n1	1%	-0.15
O=C(NCc1cc[nH]n1)Nc1ccncc1	-4%	0.69
N#CC1(C(=O)N2CCC3(CC2)NC(=O)NC3=O)CCCCC1	-4%	0.55
CN(C(=O)Cc1cccnc1)[C@H]1CCN(CC(F)(F)F)C1=O	7%	-1.12
Fc1ccc2oc(N3Cc4ccccc4CO3)nc2c1	-5%	0.75
COc1ccc(NC(=O)c2cnn(Cc3ccccc3Cl)c2)cc1S(=O)(=O)N1CCCCC1	-7%	0.96

Structure (SMILES)	% Inhibition	Z score
Cc1ccccc1C(=O)Cc1ncc[nH]1	87%	-5.77
NS(=O)(=O)c1ccccc1-c1cc(NCc2cccnc2)nc2[nH]ccc12	-9%	1.41
O=C(Nc1ccc(Cl)c(Cl)c1)Nc1ccc(Cl)cc1NC(=O)Nc1ccc(Cl)c(Cl)c1	33%	-6.17
Cc1ccc([C@@H](NC(=O)N(C)CC(C)(C)O)C(C)(C)C)o1	-1%	0.1
c1cc(-c2cn3ccsc3n2)cs1	-4%	0.61
C[C@H](NCc1nncn1C)c1ccc(OC(C)(C)C)cc1	-8%	0.84
Cn1cc(-c2cccc3c2CCC3)ccc1=O	-6%	0.62
COc1ccccc1C(=O)N1C[C@@H](CO)[C@H](NC(=O)c2ccccc2)C1	-17%	2.86
O=S(=O)(c1c(Cl)cccc1Cl)N1CC(Cn2cncn2)C1	-16%	1.99
Cc1ccc(NC(=O)N2CCCC[C@H](N3CCN(C)CC3)C2)c(Cl)c1	-2%	0.23
CCNC(=O)[C@H]1CCN(Cc2c[nH]nc2-c2ccc(F)cc2)C1	-1%	0.27
COCCNC(=O)NCCc1cccc(F)c1F	-4%	0.68
N#Cc1ncn(CCc2ccccc2)c1C#N	14%	-1.79
O=C(C[C@H]1C(=O)NCCN1Cc1ccc(F)cc1Cl)NCc1ccccn1	3%	-0.4
CC(C)c1ccc(N2C[C@]34C=C[C@H](O3)C(C(=O)N3Cc5ccccc5C3)C4C2=O)cc1 (stereo partly specified)	-5%	0.84
CC(NC1CC(NC(=O)OC(C)(C)C)C1(C)C)c1cnn(C)n1 (stereo unspecified)	2%	-0.19
CC(C)CCNC(=O)c1cc2n(n1)CCCN(Cc1ccc(Cl)cc1)C2=O	-10%	1.61
Cc1nc(O)c(C(=O)NCCc2ccnn2C)cc1Br	5%	-0.76
CCCn1cc(B2OC(C)(C)C(C)(C)O2)c(C2CC2)n1	35%	-3.91
OC1(CNCc2ccccc2OCc2cccnc2)CCCCC1	-35%	4.06
CC1COC(c2ccccc2)C(C)N1C(=O)C1CCCNC1 (stereo unspecified)	-2%	0.28
